Laboratory results: publication PMC6541620
These are yes or no findings as the source states them, for the method shown. For some assays here: Binding seen in cells or lysates may run through a third protein. Some binding calls cover weakened binding; strength is not graded here. For some assays here: Where a sequence is shown, tags or fusion partners need not be part of it.

Sequences of proteins named here, by UniProt entry; tags and fusion partners are left off. A change or cut given only in a name is not applied to a line headed by its entry. A line that says so, or that is headed by a name, gives the form on record, which may keep a tag or linker.
UniProt Q8TEP8: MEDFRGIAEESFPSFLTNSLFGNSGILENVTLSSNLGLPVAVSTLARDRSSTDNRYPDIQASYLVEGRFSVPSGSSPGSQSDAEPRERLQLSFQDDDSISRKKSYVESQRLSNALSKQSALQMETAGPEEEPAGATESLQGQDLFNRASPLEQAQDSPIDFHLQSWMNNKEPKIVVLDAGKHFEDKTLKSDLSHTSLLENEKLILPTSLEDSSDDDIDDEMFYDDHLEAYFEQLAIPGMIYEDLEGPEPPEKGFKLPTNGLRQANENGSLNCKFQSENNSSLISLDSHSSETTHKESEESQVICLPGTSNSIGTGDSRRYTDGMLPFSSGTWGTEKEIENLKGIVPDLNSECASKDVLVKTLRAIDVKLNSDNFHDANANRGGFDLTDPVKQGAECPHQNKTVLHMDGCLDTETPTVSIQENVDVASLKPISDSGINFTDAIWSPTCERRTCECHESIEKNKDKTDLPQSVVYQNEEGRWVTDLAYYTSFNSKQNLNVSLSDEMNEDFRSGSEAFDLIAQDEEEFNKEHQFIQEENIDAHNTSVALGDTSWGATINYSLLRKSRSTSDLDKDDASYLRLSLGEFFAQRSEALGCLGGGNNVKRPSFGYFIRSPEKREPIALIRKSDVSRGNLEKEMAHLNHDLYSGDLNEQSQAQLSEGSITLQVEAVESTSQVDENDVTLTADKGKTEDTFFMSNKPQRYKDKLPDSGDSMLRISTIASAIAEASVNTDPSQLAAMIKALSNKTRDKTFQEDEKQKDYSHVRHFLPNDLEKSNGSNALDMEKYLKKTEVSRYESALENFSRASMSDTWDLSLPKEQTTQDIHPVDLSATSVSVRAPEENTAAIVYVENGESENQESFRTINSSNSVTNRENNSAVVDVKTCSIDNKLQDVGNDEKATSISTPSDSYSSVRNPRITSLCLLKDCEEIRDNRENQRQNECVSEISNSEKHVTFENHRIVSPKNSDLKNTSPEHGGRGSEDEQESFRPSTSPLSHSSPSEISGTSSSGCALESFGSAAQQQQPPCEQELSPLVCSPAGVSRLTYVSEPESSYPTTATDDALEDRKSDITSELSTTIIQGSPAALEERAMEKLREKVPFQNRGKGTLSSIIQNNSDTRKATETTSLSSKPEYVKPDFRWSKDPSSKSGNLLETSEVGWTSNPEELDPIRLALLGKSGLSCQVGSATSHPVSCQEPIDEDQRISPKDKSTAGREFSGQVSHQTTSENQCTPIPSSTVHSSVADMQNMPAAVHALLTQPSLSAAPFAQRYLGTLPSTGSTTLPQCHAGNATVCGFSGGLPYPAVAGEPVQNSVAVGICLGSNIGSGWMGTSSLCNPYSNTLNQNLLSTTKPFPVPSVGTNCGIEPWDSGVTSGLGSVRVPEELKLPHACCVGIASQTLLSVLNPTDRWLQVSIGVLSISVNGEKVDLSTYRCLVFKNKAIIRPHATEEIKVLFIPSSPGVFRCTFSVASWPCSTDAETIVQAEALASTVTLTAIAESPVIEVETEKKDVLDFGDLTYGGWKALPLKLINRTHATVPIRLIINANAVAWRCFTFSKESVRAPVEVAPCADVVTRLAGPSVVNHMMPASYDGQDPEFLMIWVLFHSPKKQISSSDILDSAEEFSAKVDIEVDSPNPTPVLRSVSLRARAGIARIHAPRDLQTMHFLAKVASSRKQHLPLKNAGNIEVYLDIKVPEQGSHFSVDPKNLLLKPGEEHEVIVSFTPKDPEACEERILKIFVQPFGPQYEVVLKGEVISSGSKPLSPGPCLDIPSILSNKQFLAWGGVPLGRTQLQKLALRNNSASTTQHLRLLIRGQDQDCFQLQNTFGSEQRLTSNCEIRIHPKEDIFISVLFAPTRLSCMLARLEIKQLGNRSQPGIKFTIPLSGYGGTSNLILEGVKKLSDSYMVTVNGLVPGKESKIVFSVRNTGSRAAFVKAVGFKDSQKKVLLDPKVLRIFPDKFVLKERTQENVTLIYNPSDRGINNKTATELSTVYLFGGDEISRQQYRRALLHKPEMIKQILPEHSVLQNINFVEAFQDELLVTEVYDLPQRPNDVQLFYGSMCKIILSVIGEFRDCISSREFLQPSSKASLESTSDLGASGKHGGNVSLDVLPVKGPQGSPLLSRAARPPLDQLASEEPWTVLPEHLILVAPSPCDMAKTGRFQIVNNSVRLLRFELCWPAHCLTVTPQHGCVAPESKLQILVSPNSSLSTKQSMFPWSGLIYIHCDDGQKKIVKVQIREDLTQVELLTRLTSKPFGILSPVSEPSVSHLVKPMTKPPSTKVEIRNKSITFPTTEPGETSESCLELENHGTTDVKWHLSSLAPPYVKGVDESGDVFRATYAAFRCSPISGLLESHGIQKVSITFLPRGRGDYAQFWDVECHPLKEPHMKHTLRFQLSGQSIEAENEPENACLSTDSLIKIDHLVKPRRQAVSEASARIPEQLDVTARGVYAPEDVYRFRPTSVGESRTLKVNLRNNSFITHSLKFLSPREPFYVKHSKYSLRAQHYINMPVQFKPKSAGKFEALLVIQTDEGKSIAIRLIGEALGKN
CEP192 isoform-2 (1–1941) (Q8TEP8, form named): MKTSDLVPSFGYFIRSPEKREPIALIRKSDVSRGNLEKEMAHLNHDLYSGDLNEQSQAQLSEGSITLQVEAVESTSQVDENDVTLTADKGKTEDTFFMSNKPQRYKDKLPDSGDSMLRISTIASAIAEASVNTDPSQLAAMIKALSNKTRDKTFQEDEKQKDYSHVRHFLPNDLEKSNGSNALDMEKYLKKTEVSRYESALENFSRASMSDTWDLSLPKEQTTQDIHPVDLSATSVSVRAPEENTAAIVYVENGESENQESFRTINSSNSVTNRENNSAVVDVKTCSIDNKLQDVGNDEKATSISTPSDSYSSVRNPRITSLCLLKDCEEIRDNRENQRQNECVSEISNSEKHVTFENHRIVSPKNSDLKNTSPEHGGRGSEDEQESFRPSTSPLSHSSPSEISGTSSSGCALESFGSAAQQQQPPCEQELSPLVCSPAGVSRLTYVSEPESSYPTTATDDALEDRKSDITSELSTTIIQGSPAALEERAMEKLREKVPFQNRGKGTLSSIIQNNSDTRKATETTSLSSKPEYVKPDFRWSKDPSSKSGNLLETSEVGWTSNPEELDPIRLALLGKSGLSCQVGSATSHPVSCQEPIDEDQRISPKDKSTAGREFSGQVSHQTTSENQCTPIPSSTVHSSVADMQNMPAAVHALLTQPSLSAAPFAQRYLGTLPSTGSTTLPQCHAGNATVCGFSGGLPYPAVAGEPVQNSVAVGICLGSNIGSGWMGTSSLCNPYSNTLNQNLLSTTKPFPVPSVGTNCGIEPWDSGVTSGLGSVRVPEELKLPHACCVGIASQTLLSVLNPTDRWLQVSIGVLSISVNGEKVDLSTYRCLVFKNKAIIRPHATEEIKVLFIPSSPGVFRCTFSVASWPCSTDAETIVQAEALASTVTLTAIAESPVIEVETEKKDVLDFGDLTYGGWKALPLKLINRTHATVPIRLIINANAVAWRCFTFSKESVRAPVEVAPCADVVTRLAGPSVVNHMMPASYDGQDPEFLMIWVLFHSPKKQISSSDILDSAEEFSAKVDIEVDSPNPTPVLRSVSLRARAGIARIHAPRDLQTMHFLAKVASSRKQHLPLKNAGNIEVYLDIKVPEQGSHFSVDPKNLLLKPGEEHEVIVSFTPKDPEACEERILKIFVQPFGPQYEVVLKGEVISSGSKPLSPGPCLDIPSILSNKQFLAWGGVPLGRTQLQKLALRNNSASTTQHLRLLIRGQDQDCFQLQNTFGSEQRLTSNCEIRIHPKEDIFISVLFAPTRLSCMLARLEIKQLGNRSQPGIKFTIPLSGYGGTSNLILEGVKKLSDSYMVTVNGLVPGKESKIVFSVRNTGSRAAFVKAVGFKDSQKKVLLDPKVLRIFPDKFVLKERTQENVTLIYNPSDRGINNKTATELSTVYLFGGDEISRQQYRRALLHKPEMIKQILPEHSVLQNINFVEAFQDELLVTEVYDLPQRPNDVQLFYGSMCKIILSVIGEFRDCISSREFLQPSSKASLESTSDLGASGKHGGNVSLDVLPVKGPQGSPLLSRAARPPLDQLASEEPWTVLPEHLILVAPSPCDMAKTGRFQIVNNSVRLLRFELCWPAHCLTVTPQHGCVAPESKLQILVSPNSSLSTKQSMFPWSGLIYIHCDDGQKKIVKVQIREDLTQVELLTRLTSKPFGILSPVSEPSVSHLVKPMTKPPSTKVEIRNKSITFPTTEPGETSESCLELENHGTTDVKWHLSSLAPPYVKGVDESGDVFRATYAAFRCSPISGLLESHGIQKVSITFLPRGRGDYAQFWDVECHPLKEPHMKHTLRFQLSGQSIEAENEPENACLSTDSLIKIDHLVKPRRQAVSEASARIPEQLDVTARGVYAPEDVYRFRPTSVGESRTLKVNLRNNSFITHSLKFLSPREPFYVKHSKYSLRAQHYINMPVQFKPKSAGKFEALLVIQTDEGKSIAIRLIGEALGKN
UniProt Q9Y297: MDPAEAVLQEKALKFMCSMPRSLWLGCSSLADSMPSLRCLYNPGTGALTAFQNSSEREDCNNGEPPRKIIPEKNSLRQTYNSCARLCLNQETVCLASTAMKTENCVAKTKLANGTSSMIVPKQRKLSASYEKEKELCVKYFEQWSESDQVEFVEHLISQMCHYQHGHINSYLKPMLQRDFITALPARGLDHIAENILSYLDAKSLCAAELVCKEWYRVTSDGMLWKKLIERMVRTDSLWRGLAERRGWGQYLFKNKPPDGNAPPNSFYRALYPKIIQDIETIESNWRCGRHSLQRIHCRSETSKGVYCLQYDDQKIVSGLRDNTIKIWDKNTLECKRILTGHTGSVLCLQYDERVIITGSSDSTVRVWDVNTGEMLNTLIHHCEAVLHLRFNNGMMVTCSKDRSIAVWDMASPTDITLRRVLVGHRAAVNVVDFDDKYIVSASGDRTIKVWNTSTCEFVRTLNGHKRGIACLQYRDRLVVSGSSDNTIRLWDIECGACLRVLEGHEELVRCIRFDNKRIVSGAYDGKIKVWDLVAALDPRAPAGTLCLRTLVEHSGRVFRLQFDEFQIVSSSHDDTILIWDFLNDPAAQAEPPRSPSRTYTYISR
UniProt Q96GD4: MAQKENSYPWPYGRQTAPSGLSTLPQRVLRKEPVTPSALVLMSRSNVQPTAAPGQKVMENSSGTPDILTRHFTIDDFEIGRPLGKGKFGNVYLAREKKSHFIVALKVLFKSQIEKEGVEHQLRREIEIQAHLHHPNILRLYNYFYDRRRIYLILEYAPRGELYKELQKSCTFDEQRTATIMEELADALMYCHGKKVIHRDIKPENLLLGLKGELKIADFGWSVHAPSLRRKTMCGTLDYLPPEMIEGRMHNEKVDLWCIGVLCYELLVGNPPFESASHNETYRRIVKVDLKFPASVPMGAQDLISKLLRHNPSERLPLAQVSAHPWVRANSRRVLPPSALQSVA

Tests used:
[1] = biological target: T1, 3Flag-DVL2 C-terminal half (Δ1–360) (human) (UniProt O14641); assay: co-IP; HEK293T co-transfected; lysis in TNTE 0.5% (50 mM Tris-HCl pH 7.4, 150 mM NaCl, 1 mM EDTA, 0.5% Triton X-100); M2 anti-Flag antibody and Protein G-Sepharose, 4 °C; HA-tagged partner detected by western blotting
T1 sequence: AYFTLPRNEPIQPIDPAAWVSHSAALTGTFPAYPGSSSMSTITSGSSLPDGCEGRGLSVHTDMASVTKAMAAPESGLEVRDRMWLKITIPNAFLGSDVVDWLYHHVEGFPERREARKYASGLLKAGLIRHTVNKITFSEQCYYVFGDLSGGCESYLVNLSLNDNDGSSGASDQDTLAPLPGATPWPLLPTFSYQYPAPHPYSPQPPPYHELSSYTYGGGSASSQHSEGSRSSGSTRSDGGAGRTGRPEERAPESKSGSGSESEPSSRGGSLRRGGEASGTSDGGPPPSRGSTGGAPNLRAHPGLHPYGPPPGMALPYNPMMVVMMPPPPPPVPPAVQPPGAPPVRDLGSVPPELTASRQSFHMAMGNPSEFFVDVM

[2] = biological target: T2, 3Flag-DVL2 N-terminal half (Δ361–736) (human) (UniProt O14641); assay: as above
T2 sequence: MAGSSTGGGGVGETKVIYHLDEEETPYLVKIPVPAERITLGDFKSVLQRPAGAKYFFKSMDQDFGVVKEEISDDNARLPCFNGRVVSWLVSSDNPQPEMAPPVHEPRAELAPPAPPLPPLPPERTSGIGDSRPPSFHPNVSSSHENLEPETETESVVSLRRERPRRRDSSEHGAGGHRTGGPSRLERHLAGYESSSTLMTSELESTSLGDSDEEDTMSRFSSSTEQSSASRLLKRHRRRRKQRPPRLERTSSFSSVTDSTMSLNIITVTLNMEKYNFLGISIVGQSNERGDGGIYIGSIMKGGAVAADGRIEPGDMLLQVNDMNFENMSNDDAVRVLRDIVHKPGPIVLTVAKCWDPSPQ

[3] = biological target: T1, 3Flag-DVL2 C-terminal half (Δ1–360) (human); assay: LUMIER (luminescence-based mammalian interactome; co-IP with luciferase read-out); HEK293T co-transfected in 96-well plates with a Renilla luciferase fusion and a Flag-tagged protein; after 48 h lysates immunoprecipitated in plates coated with M2 anti-Flag antibody; luciferase fusion detected with Renilla substrate; also done after CEP192 RNAi (Supplementary Fig. 8a)
[4] = biological target: T2, 3Flag-DVL2 N-terminal half (Δ361–736) (human); assay: as above
[5] = biological target: CEP192 isoform-1 (AA 1–2537) (human) (UniProt Q8TEP8); assay: as above
[6] = biological target: CEP192 isoform-2 (1–1941) (human) (UniProt Q8TEP8); assay: as above
3 Flag-BTRC = 3 Flag-BTRC (UniProt Q9Y297); assay: co-IP; HEK293T transfected with 3HA-PLK4, 3 Flag-BTRC and increasing amounts of T7-DVL2-wt or T7-DVL2 (Δ361–736); anti-Flag immunoprecipitation; signal ratio HA-PLK4/3F-BTRC in the immunoprecipitates
[7] = biological target: T1, 3Flag-DVL2 C-terminal half (Δ1–360) (human); assay: LUMIER (luminescence-based mammalian interactome; co-IP with luciferase read-out); HEK293T co-transfected in 96-well plates with a Renilla luciferase fusion and a Flag-tagged protein; after 48 h lysates immunoprecipitated in plates coated with M2 anti-Flag antibody; luciferase fusion detected with Renilla substrate; also done after CEP192 RNAi (Supplementary Fig. 8a); remark: listed apart in the source
[8] = biological target: T2, 3Flag-DVL2 N-terminal half (Δ361–736) (human); assay: as above; remark: listed apart in the source

## 3HA-AURKB (from UniProt Q96GD4 1-344)
[1]
  binding: no binding
[2]
  binding: no binding

## Renilla luciferase (RL)-AURKB (from UniProt Q96GD4 1-344)
[3]
  binding: no binding
[4]
  binding: no binding
[5]
  binding: binds
[6]
  binding: binds

B1: 3HA-PLK4 (protein, UniProt O00444 1-970)
chain: MATCIGEKIEDFKVGNLLGKGSFAGVYRAESIHTGLEVAIKMIDKKAMYKAGMVQRVQNEVKIHCQLKHPSILELYNYFEDSNYVYLVLEMCHNGEMNRYLKNRVKPFSENEARHFMHQIITGMLYLHSHGILHRDLTLSNLLLTRNMNIKIADFGLATQLKMPHEKHYTLCGTPNYISPEIATRSAHGLESDVWSLGCMFYTLLIGRPPFDTDTVKNTLNKVVLADYEMPSFLSIEAKDLIHQLLRRNPADRLSLSSVLDHPFMSRNSSTKSKDLGTVEDSIDSGHATISTAITASSSTSISGSLFDKRRLLIGQPLPNKMTVFPKNKSSTDFSSSGDGNSFYTQWGNQETSNSGRGRVIQDAEERPHSRYLRRAYSSDRSGTSNSQSQAKTYTMERCHSAEMLSVSKRSGGGENEERYSPTDNNANIFNFFKEKTSSSSGSFERPDNNQALSNHLCPGKTPFPFADPTPQTETVQQWFGNLQINAHLRKTTEYDSISPNRDFQGHPDLQKDTSKNAWTDTKVKKNSDASDNAHSVKQQNTMKYMTALHSKPEIIQQECVFGSDPLSEQSKTRGMEPPWGYQNRTLRSITSPLVAHRLKPIRQKTKKAVVSILDSEEVCVELVKEYASQEYVKEVLQISSDGNTITIYYPNGGRGFPLADRPPSPTDNISRYSFDNLPEKYWRKYQYASRFVQLVRSKSPKITYFTRYAKCILMENSPGADFEVWFYDGVKIHKTEDFIQVIEKTGKSYTLKSESEVNSLKEEIKMYMDHANEGHRICLALESIISEEERKTRSAPFFPIIIGRKPGSTSSPKALSPPPSVDSNYPTRERASFNRMVMHSAASPTQAPILNPSMVTNEGLGLTTTASGTDISSNSLKDCLPKSAQLLKSVFVKNVGWATQLTSGAVWVQFNDGSQLVVQAGVSSISYTSPNGQTTRYGENEKLPDYIKQKLQCLSSILLMFSNPTPNFH
3 Flag-BTRC
  binding: binds
[1]
  binding: no binding
[2]
  binding: no binding

B2: Renilla luciferase (RL)-PLK4 (protein, UniProt O00444 1-970)
chain: B1 chain
[7]
  binding: no binding
[8]
  binding: no binding
